{
  "sequences": {"note": "Sequences of proteins named here, by UniProt entry; tags and fusion partners are left off. A change or cut given only in a name is not applied to a line headed by its entry. Residues count along the entry.", "UniProt P21802": "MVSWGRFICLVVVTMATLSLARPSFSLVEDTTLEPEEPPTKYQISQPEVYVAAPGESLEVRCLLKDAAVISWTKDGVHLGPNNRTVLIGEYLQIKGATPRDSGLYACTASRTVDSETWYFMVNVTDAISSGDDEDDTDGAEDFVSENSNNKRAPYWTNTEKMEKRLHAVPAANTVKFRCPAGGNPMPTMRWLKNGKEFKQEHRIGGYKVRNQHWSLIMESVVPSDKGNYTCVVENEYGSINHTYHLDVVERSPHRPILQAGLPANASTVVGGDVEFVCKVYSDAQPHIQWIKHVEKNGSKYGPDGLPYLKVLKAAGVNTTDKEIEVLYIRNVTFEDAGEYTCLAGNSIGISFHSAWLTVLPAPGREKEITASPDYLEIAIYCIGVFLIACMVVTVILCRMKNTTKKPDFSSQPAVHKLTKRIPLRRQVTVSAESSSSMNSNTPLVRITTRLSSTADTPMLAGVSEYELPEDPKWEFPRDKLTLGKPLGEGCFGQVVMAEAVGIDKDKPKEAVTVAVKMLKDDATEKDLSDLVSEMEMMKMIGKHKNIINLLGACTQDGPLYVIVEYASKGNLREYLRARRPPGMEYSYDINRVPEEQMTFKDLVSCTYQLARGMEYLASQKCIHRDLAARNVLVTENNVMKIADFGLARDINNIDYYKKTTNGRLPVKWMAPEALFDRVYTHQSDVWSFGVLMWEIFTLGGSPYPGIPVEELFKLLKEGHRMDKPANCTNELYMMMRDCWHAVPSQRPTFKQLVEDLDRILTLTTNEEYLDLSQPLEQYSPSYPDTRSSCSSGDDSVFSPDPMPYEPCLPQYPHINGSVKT", "recombinant human FGFR2/Fc chimera (Sino Biological 10824-H03H)": "residues 22-377 of P21802", "UniProt P11362": "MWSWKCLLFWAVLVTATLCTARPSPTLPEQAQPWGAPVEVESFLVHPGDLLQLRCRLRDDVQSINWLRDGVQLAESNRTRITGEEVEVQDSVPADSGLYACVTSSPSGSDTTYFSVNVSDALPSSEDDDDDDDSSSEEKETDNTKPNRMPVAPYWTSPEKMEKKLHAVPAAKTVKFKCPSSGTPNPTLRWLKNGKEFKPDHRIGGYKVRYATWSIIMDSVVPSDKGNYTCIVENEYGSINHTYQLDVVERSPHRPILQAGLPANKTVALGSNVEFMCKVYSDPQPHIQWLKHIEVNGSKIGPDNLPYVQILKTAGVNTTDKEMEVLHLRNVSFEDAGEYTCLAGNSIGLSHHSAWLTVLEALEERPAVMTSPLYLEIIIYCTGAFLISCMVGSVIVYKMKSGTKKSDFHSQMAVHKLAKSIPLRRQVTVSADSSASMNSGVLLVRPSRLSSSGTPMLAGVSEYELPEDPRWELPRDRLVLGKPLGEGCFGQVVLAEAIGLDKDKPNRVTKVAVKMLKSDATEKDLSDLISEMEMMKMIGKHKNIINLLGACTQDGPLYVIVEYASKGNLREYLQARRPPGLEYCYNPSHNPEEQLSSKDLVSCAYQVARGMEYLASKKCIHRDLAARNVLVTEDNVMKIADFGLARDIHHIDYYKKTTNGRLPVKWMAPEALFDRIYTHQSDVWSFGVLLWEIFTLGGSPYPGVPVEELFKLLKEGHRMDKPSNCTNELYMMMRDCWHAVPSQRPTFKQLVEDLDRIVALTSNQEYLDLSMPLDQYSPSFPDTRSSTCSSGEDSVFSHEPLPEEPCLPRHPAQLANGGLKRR", "recombinant human FGFR1/Fc chimera (Sino Biological 10616-H03H)": "residues 22-376 of P11362", "UniProt P22607, residues 23-806": "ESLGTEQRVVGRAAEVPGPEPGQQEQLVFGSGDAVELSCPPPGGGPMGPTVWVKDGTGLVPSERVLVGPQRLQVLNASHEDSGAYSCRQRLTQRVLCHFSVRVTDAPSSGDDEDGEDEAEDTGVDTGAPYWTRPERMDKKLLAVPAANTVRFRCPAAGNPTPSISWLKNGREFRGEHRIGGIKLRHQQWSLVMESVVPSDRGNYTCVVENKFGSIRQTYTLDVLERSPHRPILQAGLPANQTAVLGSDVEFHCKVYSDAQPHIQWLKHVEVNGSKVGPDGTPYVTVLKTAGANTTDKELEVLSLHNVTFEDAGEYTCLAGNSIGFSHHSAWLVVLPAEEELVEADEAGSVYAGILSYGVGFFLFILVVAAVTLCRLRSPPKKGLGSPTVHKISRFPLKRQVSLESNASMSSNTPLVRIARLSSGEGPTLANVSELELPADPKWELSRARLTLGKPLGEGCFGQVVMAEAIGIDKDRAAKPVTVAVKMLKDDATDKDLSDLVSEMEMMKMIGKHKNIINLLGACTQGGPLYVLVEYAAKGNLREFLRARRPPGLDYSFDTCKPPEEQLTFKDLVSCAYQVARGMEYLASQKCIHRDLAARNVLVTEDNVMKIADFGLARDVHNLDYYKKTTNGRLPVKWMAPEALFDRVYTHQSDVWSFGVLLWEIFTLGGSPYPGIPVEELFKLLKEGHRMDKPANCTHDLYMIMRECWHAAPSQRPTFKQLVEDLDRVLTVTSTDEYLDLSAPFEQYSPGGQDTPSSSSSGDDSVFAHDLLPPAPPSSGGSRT", "UniProt P22455, residues 22-802": "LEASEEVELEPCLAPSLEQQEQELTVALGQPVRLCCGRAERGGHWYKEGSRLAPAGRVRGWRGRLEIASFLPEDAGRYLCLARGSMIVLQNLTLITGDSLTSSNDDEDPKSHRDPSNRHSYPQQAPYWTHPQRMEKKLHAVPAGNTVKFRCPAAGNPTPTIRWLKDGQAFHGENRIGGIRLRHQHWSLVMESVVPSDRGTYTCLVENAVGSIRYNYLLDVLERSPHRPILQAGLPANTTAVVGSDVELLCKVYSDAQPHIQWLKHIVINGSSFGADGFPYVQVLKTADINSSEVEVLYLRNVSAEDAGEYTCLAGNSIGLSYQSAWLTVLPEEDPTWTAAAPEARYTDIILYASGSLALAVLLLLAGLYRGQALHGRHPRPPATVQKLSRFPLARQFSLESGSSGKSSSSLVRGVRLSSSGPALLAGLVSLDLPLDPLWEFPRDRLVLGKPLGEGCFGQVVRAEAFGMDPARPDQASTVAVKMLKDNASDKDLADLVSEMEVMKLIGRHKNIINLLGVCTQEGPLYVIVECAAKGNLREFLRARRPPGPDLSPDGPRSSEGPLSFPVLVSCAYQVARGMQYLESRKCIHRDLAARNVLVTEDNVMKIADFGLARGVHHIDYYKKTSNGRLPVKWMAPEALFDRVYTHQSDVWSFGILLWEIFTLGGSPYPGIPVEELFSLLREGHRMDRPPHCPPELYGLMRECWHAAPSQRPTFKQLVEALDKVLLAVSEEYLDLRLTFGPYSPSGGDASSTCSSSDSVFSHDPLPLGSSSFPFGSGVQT", "UniProt P09038, residues 143-288": "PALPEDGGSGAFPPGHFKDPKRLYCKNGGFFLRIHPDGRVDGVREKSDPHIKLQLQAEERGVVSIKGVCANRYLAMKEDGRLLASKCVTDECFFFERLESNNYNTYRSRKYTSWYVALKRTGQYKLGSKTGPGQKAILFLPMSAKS"},
  "source": "paper PMC5467231",
  "key": {"[1]": {"biological_target": "T1, melanoma cell adhesion molecule (MCAM), endogenous in HEK293 cells (human (endogenous in HEK293)) (UniProt P43121)", "T1 sequence": "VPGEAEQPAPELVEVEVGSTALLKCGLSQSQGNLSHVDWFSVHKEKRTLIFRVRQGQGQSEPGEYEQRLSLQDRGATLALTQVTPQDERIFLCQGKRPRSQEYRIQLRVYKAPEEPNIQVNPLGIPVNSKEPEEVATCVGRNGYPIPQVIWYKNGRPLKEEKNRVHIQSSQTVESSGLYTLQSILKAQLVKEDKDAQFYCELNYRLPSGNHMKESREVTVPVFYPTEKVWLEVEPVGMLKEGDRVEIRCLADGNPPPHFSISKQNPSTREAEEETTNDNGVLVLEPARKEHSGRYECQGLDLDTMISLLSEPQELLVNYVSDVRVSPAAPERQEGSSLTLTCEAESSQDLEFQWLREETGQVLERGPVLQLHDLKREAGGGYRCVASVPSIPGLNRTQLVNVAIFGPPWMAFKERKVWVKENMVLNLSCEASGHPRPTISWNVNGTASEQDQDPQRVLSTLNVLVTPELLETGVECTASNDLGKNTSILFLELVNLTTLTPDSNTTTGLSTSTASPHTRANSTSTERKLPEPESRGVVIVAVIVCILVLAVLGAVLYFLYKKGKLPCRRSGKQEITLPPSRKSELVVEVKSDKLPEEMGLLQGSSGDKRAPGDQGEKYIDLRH", "assay": "co-IP; HEK293 lysate (1% NP-40, 100 mM NaCl, pH 7.5); precipitated with anti-MCAM antibody AA1 and Protein G PLUS-Agarose at 4 °C, washed with 1 M NaCl, 1% NP-40; immunoblot (precipitating antibody of the FGFR1/FGF4 co-IP not told)"}, "[2]": {"biological_target": "recombinant human FGFR2/Fc chimera (Sino Biological 10824-H03H) (human) (UniProt P21802)", "assay": "SPR; Biacore T100, CM5 chip, room temperature, 1x PBS with 0.05% Tween 20; MCAM/Fc, FGFR1/Fc, FGFR2/Fc or IgG1 Fc immobilised by amine coupling, soluble FGF2, FGF4 or FGF8 flowed over; 1:1 binding model; both purified"}, "[3]": {"biological_target": "T2, recombinant human MCAM/Fc chimera (Sino Biological 10115-H02H) (human) (UniProt P43121)", "T2 sequence": "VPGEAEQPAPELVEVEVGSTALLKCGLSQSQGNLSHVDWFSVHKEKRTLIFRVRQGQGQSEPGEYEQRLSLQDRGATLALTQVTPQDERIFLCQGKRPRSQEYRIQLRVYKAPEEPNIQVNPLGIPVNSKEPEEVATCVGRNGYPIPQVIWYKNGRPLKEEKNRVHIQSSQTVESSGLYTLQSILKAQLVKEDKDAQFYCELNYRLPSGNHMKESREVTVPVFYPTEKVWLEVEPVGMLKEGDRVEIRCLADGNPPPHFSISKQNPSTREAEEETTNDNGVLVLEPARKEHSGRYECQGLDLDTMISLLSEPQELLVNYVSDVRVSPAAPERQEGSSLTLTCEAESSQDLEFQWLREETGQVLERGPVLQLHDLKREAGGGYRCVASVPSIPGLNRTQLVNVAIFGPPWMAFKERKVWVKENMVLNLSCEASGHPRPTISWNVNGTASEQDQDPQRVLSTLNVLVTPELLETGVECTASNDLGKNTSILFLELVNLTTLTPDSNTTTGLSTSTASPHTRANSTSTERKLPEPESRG", "assay": "SPR; Biacore T100, CM5 chip, room temperature, 1x PBS with 0.05% Tween 20; MCAM/Fc, FGFR1/Fc, FGFR2/Fc or IgG1 Fc immobilised by amine coupling, soluble FGF2, FGF4 or FGF8 flowed over; 1:1 binding model; both purified"}, "[4]": {"biological_target": "recombinant human FGFR1/Fc chimera (Sino Biological 10616-H03H) (human) (UniProt P11362)", "assay": "SPR; Biacore T100, CM5 chip, room temperature, 1x PBS with 0.05% Tween 20; MCAM/Fc, FGFR1/Fc, FGFR2/Fc or IgG1 Fc immobilised by amine coupling, soluble FGF2, FGF4 or FGF8 flowed over; 1:1 binding model; both purified"}},
  "note": "No constants are given. Whether binding was seen depends on the method and setting. For some of these results: In cells and extracts the contact can be indirect. Some entries that bind do so weakly or less than the wild type. For some of these results: Sequences can lack the tags named with a protein.",
  "data": [
    {"substance": "FGFR1, endogenous in HEK293 cells (from UniProt P11362 22-822) (receptor)", "values": [
      {"measurement": "binding", "setting": "[1]", "result": "no binding"}
    ]},
    {"substance": "FGFR2, endogenous in HEK293 cells (from UniProt P21802 22-821) (receptor)", "values": [
      {"measurement": "binding", "setting": "[1]", "result": "no binding"}
    ]},
    {"substance": "FGFR3, endogenous in HEK293 cells (from UniProt P22607 23-806) (receptor)", "values": [
      {"measurement": "binding", "setting": "[1]", "result": "no binding"}
    ]},
    {"substance": "FGFR4, endogenous in HEK293 cells (from UniProt P22455 22-802) (receptor)", "values": [
      {"measurement": "binding", "setting": "[1]", "result": "no binding"}
    ]},
    {"substance": "recombinant human FGF2 (Sino Biological 10014-HNAE) (from UniProt P09038 143-288) (ligand)", "values": [
      {"measurement": "binding", "setting": "[2]", "result": "binds"},
      {"measurement": "binding", "setting": "[3]", "result": "no binding"},
      {"measurement": "binding", "setting": "[4]", "result": "binds"}
    ]}
  ]
}
